Tested on: C57BL/6J mice
Assay: Hot plate latency after PO gavage
Settings: 30 mg/kg of oxycodone in prodrug, one-way ANOVA with Dunnett's post hoc, ** = p < 0.01

“Ac-Lys[Tyr-Ala-Ala-Ala]-(2-(oxycodone-thionocarbamate)methyl)ethylamino ditrifluoroacetate [compound 20]” was tested, and the “analgesic effect versus PO gavage of water only (statistics)” value was “statistically significant”.

From publication PMC12569658, “An Orally Administered Misuse Deterrent Opioid Prodrug for Treatment of Acute Pain” (JACS Au, 2025)
